From publication PMC4336329 (PLoS ONE, 2015)
Among all 310,000 compounds or so, about 14,000 (4.5%) showed an effect of 50% or more. The effect is printed as a negative number. Some of the results follow.

Biological target: human ether-à-go-go-related gene (hERG) potassium channel (human, UniProt Q12809)
Assay: primary screen, population patch clamp on CHO cells stably expressing hERG
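Note: peak tail current of the secondary pulse compared with the same well before compound.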

Sequence of human ether-à-go-go-related gene (hERG) potassium channel (Q12809 whole entry, looked up): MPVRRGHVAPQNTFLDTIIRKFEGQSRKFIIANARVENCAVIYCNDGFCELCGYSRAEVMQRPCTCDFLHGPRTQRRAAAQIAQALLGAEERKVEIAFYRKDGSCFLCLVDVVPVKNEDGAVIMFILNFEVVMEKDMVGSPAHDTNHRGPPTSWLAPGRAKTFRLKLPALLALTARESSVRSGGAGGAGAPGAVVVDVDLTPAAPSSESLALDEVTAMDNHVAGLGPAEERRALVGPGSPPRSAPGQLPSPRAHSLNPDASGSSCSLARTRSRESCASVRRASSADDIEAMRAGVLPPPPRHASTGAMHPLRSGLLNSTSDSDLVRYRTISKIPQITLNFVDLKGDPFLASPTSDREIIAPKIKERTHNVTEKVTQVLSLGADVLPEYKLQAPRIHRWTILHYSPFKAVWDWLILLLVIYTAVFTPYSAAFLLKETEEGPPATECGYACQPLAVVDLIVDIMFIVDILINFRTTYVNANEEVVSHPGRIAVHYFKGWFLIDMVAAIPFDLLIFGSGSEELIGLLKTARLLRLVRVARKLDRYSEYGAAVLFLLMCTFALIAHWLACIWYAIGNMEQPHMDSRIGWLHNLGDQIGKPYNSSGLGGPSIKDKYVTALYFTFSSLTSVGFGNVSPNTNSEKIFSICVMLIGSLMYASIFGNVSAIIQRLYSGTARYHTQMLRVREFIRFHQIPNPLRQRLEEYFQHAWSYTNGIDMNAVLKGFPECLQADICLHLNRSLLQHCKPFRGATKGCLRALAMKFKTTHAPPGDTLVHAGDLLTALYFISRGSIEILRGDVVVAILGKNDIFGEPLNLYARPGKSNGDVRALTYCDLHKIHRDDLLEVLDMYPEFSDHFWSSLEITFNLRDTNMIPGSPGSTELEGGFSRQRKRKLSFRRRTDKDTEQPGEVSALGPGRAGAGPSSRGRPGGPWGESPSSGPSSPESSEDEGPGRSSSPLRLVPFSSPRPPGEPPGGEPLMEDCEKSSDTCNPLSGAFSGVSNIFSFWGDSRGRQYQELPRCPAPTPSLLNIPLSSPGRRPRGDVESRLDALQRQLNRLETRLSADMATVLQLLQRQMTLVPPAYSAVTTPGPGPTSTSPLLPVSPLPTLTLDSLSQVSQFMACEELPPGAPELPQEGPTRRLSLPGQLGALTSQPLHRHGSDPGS

| SMILES | hERG current change (%, negative = inhibition) at 10uM [%] |
| --- | --- |
| CCN1CCN(C(=O)NC(c2ccc(C)c(F)c2)C(Cl)Cl)CC1 (stereo not shown) | -12.8 |
| CN(C)c1ccc(/C=C/c2ccc3ccccc3n2)cc1 | 19.3 |
| O=C(Nc1cccc2ncccc12)c1cccnc1 | 14.5 |
| CCOC(=O)N1CCc2c(sc3c2c(=O)n(Cc2ccccc2)c(=O)n3CC(=O)NCCOC)C1 | -19.1 |
| O=C(Nc1ccccc1)C1C2CCCCC21 (stereo not shown) | -1.94 |
| COC(=O)[C@@]12CCCCN1[C@H](c1ccc(SC3CCCCC3)c(OC)c1)[C@@H]1C(=O)N(C)C(=O)[C@@H]12.O=C(O)C(F)(F)F | 19.8 |
| COc1cccc(-n2c(Cn3nc(C(F)F)cc3C(F)F)n[nH]c2=S)c1 | 6.13 |
| CC1CCN(CCCNC(=O)C2CCC(CNS(=O)(=O)c3cccc4nsnc34)CC2)CC1 (stereo not shown) | 2.56 |
| CC(C)COc1ccc(S(=O)(=O)n2cc(F)c(=O)[nH]c2=O)cc1 | -0.0681 |
| NC(=O)C1CCN(C(=O)CCSCc2ccc(Cl)c(Cl)c2)CC1 | -13.3 |
| CCN(CC)c1ccc(-n2c(C)c(C(C)=O)c(C(C)=O)c2C)cc1 | 9.56 |
| COc1ccccc1N(C)S(=O)(=O)c1ccc(Cl)c(C(=O)N2CCC(C(N)=O)CC2)c1 | 4.23 |
| O=C(OCc1nnc(-c2ccccc2)o1)c1cc(F)c(F)cc1Cl | -8.47 |
| COc1ccc(C(C(=O)NCC2CCCO2)N(Cc2cccs2)C(=O)c2snc(C(N)=O)c2N)cc1 (stereo not shown) | 17.1 |
| CC(=O)Nc1ccc(Nc2ncnc3ccccc23)cc1 | 10.9 |
| CCOC(=O)C1CCN(C(=S)Nc2ccc(C)cc2)CC1 | 24.8 |
| O=c1[nH]c(=S)c2c(n1-c1ccccc1)CCC2 | 9.25 |
| CCOC(=O)c1ccc(CNC(=O)C2CCC(=O)N(CCc3ccccc3)C2)o1 (stereo not shown) | -8.45 |
| COc1ccc(N2CCN(CC(O)COC(C)(C)C)CC2)cc1.O=C(O)C(=O)O (stereo not shown) | 10.2 |
| Cc1cc([N+](=O)[O-])nn1CCCC(=O)Nc1sc2c(c1C(N)=O)CCC(C)C2 (stereo not shown) | -12.1 |
| Cc1cc2ncn(S(=O)(=O)c3ccc(S(=O)(=O)N4CCOCC4)cc3)c2cc1C | 4.83 |
| CCOc1ccc(/C=N/NS(=O)(=O)c2ccc(C)cc2)cc1OC | 16 |

| SMILES | hERG current change (%, negative = inhibition) at 10uM [%] |
| --- | --- |
| O=C(Nc1cccc2c1C(=O)NC2=O)c1ccccc1[N+](=O)[O-] | 17 |
| Cc1cc(-n2c(SCC(=O)NCCC3=CCCCC3)nc3n[nH]c(C)c3c2=N)ccc1Cl | 4.5 |
| Cc1onc(-c2ccccc2)c1C(=O)NNC(=O)c1ccccc1Br | 0.219 |
| Cn1c(=O)c2c(nc(Cl)n2Cc2ccc(Cl)c(Cl)c2)n(C)c1=O | -10.4 |
| COCCNc1nc(C)cc(-c2cc(C(=O)Nc3ccccc3)on2)n1 | -10.7 |
| CC(C)C(=O)Nc1cccc(NC(=O)c2cccc([N+](=O)[O-])c2)c1 | -30.9 |
| COCCn1c(-c2cccc([N+](=O)[O-])c2)nc2c1c(=O)[nH]c(=O)n2Cc1ccccc1 | -84.2 |
| CNC(=O)c1ccsc1NC(=O)CCS(=O)(=O)c1ccc(F)cc1 | -26.7 |
| CC(=O)N1CCN(Cc2nc(C(c3ccccc3)c3ccccc3)no2)CC1 | 10.8 |
| COc1ccc(-c2nnn(CC(=O)NCCc3c[nH]c4ccccc34)n2)cc1OC | -5.64 |
| COc1ccc(N2CCN(C(=O)CNS(=O)(=O)c3ccc(C)cc3)CC2)cc1 | -9.12 |
| COc1ccc(C(=O)c2ccccc2Cl)cc1 | -34.5 |
| Nc1nnc(-c2ccc(Cl)c([N+](=O)[O-])c2)s1 | 3.2 |
| CCc1noc(C)c1C(=O)N(CCCOC)c1c(N)n(Cc2ccccc2)c(=O)[nH]c1=O | 27.3 |
| Cc1cccc(-n2ncc3c2CCCC3NC(=O)CCCN2CCCCC2=O)c1C (stereo not shown) | 12.7 |
| COc1ccc(-c2cc(=O)n(-c3nc4ccccc4[nH]3)[nH]2)cc1 | -53.1 |
| O=C1NCCN/C1=C\C(=O)c1ccc(F)cc1 | 15.3 |
| O=C(NC(=S)Nc1ccc(N2CCCC2)cc1)c1ccc(F)cc1 | 13.7 |
| Cc1cc(C)cc(NC(=O)C2CCCC2)c1 | 18.1 |
| CC(C)[C@H](N)c1nnc(SC/C=C/c2ccccc2)o1.Cl | -6.84 |
| O=[N+]([O-])c1ccc2[nH]ncc2c1 | 12.3 |
| CC(=O)N1CCN(C(=O)c2ccc(NS(=O)(=O)c3cc(C)ccc3C)cc2)CC1 | 9.15 |

| SMILES | hERG current change (%, negative = inhibition) at 10uM [%] |
| --- | --- |
| CCN1CCN(c2cc(C)c3cc(NC(=S)NCCCOC)ccc3n2)CC1 | 5.8 |
| COc1nnc(-c2ccc(N3CCCCC3)c(NC(C)=O)c2)c2ccccc12 | -1.44 |
| O=C(Nc1ccc2snnc2c1)N1CCSCC1 | 6.76 |
| O=C(c1ccc(Cl)s1)N1CCN(c2ncccn2)CC1 | -12.3 |
| O=C1/C(=C/c2ccc3c(c2)OCO3)Oc2cc(OCC(=O)N3CC(O)C[C@H]3C(=O)O)ccc21 (stereo partly shown) | -2.54 |
| COc1cc2c(cc1OC)C(c1cc3cc4c(cc3[nH]c1=O)OCO4)N(C(=O)C(C)C)CC2 (stereo not shown) | -4.79 |
| CCCNC(=O)CSc1nnc(C)s1 | 2.8 |
| CCCc1cn(S(=O)(=O)c2ccc(OC)cc2OC)nc1N | -11.6 |
| O=C(NCC1(N2CCCCC2)CCCCC1)c1cccc(NS(=O)(=O)c2ccccc2)c1 | -64.4 |
| Fc1ccccc1CSc1nncn1NC/C=C/c1ccccc1 | -4.88 |
| CC1C(C(=O)Nc2ccccc2)CCCC1(C)C(=O)O (stereo not shown) | -8.15 |
| COc1ccc(CCN2C(=O)C3C4C=CC(C5CC45)C3C2=O)cc1OC (stereo not shown) | -0.203 |
| CC1(C)CC(N2CCCC2)=CC(=[N+]2CCCC2)C1.[I-] | -12.1 |
| COc1ccc(CCNC(=O)C2CCCN(c3nc4ccccc4s3)C2)cc1OC (stereo not shown) | 5.33 |
| O=C(NC1CCCC1)C(c1ccccn1)N(C(=O)c1csnn1)c1ccccc1 (stereo not shown) | 16.1 |
| CC(=O)/C(=N/Nc1ccccc1)Sc1nnc(CCc2ccccc2)n1-c1ccccc1 | -30.7 |
| Cc1ccc(C)c(-n2c(Cc3cc(=O)[nH]c(=O)[nH]3)nnc2SCC(=O)NCC2CCCO2)c1 (stereo not shown) | 1.39 |
| Cc1ccc(CSc2ncnc3onc(C)c23)cc1 | 5.18 |
| O=C(O)[C@@H](O)c1ccccc1 | 6.63 |
| O=C(Nc1ccc(S(=O)(=O)Nc2cnc3ccccc3n2)cc1)c1ccc(F)cc1 | -3.77 |
| Cn1c(Cn2c(=O)sc3ccccc32)nnc1SCC(=O)NCC1CCCO1 (stereo not shown) | 8.76 |
| CC(C)CN(C(=O)COC(=O)c1ccc(-c2ccccc2)cc1)C1CCS(=O)(=O)C1 (stereo not shown) | 17.5 |

| SMILES | hERG current change (%, negative = inhibition) at 10uM [%] |
| --- | --- |
| O=C(CSCc1ccccc1)N/N=C/c1ccc(OCC(=O)N2CCCCC2)cc1 | 8.35 |
| CCCNC(=O)Nc1ccccc1C(=O)Nc1ccc(OC)cc1 | 2.77 |
| Cc1onc(-c2ccc3c(c2)OCO3)c1-c1ccc2[nH]ccc2c1 | -17.9 |
| Cc1ccc(OCC(=O)NCCO)c(Br)c1 | 14.3 |
| O=C(NC1CCN(Cc2nnnn2CCc2ccccc2)CC1)c1ccccc1F | -3.18 |
| CS(=O)(=O)N(CC(N)=O)Cc1ccc(Cl)cc1 | -28 |
| CN(C)c1ccc(C2/C(=C(/O)c3ccccc3)C(=O)C(=O)N2CCCC(=O)O)cc1 (stereo not shown) | -10.7 |
| CCC1(C)Cc2c(sc3nn[nH]c(=O)c23)CO1 (stereo not shown) | 11.4 |
| Cc1ccc(OCC(=O)NC2CCS(=O)(=O)C2)c([N+](=O)[O-])n1 (stereo not shown) | 18.5 |
| O=S(=O)(NC1CCCCC1)c1ccc(Cl)nc1 | -1.36 |
| COc1ccc(C(=O)Nc2cnccn2)cc1[N+](=O)[O-] | 6.88 |
| CN(C(=S)Nc1ccccc1F)C1(c2ccccc2Cl)CCCCC1=O (stereo not shown) | 3.09 |
| COc1ccc(C2=NN(C(=O)CSc3ncccn3)C(c3ccc(OC)cc3)C2)cc1 (stereo not shown) | -4.78 |
| CS(=O)(=O)c1ccc2nc(NC(=O)C3CCCO3)sc2c1 (stereo not shown) | 15.7 |
| CCC(C)n1c(O)c(C(c2ccccn2)c2c(O)n(C(C)CC)c(=S)[nH]c2=O)c(=O)[nH]c1=S (stereo not shown) | 10 |
| O=C(NCc1ccccc1)c1ccccc1-c1nc2ccccc2[nH]1 | 5.07 |
| COc1cccc(/C=C/C(=O)NCCc2ccc(OC)c(OC)c2)c1 | -16.3 |
| O=C(OCc1c(-c2ccccc2)ncc2ccccc12)c1cccc(Br)c1 | -0.0854 |
| CN(CC(=O)Nc1cccc(F)c1)C(=O)c1ccc(-c2ccc(Cl)cc2)o1 | 8.35 |
| CC(C)C(=O)Nc1nnc(-c2ccccc2)o1 | 13.2 |
| c1ccn2cc(CSC3=NCCS3)nc2c1 | 12.5 |
| C#CCOc1ccc2ccccc2c1/C=C(/C#N)c1ccc(C(=O)O)cc1 | 9.4 |
